Measurements from PubChem BioAssay AID1030 (National Center for Advancing Translational Sciences (NCATS), 2008).
Hit rate of the full screen: of about 220,000 compounds, about 16,000 (7.3%) were called active. Inconclusive means that the source gave no clear call. Such entries were picked first, then a sample of the others. Calls come from the whole dose curve; as a rule, active = well fitted inhibition curve with a large enough effect (not every such curve was filed as active); inconclusive = small, poorly fitted or top-dose-only effect, or another doubt; inactive = no such curve, though single readings can be large or run the other way. Potencies of inconclusive entries are left out as doubtful fits.

molecular target: Aldehyde dehydrogenase 1A1 (Homo sapiens) (UniProt P00352); assay: qHTS Assay for Inhibitors of Aldehyde Dehydrogenase 1 (ALDH1A1); conditions: Purified ALDH1A1, NADH fluorescence, propionaldehyde substrate; series mostly up to 75.3 µM; activity, negative = inhibition: at the top concentration;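 for activity, negative = inhibition: plate controls were no enzyme wells and a reference inhibitor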
Potency is the fitted concentration of half-maximal effect; tags give direction and shape of the fitted curve.

Sequence of UniProt P00352 (P00352 whole entry, looked up): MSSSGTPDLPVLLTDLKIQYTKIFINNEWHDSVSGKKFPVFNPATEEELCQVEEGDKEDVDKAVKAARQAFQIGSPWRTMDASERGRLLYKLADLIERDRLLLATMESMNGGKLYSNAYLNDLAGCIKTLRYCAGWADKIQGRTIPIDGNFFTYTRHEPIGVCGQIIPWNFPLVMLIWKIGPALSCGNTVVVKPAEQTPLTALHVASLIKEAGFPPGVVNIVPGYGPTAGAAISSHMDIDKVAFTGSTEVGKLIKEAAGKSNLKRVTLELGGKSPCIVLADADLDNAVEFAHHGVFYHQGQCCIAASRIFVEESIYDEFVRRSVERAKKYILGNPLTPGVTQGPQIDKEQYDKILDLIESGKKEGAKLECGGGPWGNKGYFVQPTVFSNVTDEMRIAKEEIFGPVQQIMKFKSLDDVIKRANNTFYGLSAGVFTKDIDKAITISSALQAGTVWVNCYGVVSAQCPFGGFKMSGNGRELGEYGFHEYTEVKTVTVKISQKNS

Structure (SMILES)	Potency	activity, negative = inhibition
CCCCOCC(O)CN1CCN(C(C)=O)CC1 (stereo not drawn)	inconclusive [inhibitor, partial curve]	
Cn1cccc1Cc1nnc(SCC(=O)Nc2ccc(F)cc2)n1CCc1ccccc1	inconclusive [inhibitor, single point]	
CN(C(=O)Cc1c[nH]c2ccccc12)C(C(=O)Nc1ccc2c(c1)OCO2)c1ccccc1 (stereo not drawn)	inconclusive [inhibitor, single point]	
Cc1csc(SCC(=O)NC(C)c2ccccc2)n1 (stereo not drawn)		inactive: -1.44%
Cc1nnc(SCc2cccs2)[nH]c1=O		inactive: 10.3%
CCN(CC)c1ccc(/C=N/NC(=O)Cc2cccs2)c(O)c1	inconclusive [inhibitor, single point]	
CC(=O)N1CCCc2cc(S(=O)(=O)NC(C(=O)NCc3ccc(C)cc3)C(C)C)ccc21 (stereo not drawn)	inconclusive [inhibitor, partial curve]	
O=[N+]([O-])c1ccc(N2CCNCC2)cc1NCc1cccnc1	inconclusive [inhibitor, single point]	
Cc1c(NC(=O)c2cccnc2C(=O)O)cccc1C(=O)O	inconclusive [inhibitor, partial curve]	
CCOC(=O)c1cnc(SC2CC(=O)N(c3ccccc3)C2=O)nc1N (stereo not drawn)	inconclusive [inhibitor, single point]	
CCCCNS(=O)(=O)c1ccc2nc(SCC(=O)Nc3sccc3C#N)[nH]c2c1	inconclusive [inhibitor, single point]	
O=C(Nc1cc(-c2nc3ccccc3s2)ccc1Cl)c1ccc2c(c1)OCO2	inconclusive [inhibitor, partial curve]	
O=Cc1cc([N+](=O)[O-])ccc1N1CCOCC1	inconclusive [inhibitor, single point]	
CCCCCCc1cc2cc(C(N)=O)c(=N)oc2cc1O	inconclusive [inhibitor, partial curve]	
CC1=NN(c2ccc(C)cc2)C(=O)/C1=C\C=C\c1ccccc1	inconclusive [inhibitor, partial curve]	
Cc1ccccc1C1C(C#N)=C2N=C(N)c3c(sc4c3CCCCC4)N2C2=C1C(=O)CC(C)(C)C2 (stereo not drawn)	active: 7.08 µM	
COc1cc(/C=C/C(=O)N2CCCC2)cc(OC)c1OC	inconclusive [inhibitor, single point]	
CCOC(=O)c1c(NC(=O)c2ccccc2Br)sc2c1CCc1ccccc1-2	inconclusive [inhibitor, partial curve]	
